Experimental data published in PMC4336329 (PLoS ONE, 2015).
Screen size: about 310,000 compounds; about 14,000 (4.5%) showed an effect of 50% or more. The effect is printed as a negative number. This is one part of the list.

Target: human ether-à-go-go-related gene (hERG) potassium channel (human, UniProt Q12809)
Assay: primary screen, population patch clamp on CHO cells stably expressing hERG
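Note: peak tail current of the secondary pulse compared with the same well before compound.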

Chain of human ether-à-go-go-related gene (hERG) potassium channel (Q12809 whole entry, looked up): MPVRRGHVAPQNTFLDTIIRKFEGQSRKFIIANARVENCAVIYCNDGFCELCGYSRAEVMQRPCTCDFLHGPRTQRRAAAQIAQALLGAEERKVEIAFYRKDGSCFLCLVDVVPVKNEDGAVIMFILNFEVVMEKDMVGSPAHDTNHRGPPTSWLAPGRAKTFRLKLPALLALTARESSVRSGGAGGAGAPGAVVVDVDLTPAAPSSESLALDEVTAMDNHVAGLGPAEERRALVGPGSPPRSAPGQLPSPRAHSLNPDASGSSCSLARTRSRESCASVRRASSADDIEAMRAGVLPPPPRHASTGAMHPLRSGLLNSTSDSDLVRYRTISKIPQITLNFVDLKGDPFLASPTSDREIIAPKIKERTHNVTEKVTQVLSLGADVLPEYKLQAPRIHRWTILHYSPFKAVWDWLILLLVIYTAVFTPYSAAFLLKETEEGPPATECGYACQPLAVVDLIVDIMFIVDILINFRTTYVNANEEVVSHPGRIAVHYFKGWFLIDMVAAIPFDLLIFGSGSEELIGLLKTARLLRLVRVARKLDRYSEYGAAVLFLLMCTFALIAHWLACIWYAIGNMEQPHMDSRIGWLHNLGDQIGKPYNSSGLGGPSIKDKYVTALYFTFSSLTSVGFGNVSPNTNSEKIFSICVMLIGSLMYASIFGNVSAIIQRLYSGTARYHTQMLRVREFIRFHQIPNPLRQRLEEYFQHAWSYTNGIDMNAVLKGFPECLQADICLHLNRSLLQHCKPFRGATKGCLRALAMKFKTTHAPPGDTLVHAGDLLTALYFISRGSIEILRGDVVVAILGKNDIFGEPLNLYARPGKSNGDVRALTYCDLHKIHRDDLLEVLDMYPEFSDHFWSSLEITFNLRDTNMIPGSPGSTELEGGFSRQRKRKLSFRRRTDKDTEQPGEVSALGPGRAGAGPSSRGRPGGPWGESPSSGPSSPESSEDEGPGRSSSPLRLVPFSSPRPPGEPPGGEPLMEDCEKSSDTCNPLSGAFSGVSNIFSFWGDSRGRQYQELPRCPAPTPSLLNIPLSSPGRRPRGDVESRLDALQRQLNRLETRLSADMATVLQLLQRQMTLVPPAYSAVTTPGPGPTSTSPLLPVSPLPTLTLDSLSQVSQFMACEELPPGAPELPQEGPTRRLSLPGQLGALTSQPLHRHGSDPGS

Compound | hERG current change (%, negative = inhibition) at 10uM
COC(=O)/C=C1/S/C(=N/NC(=O)c2ccccc2OC)NC1=O | 26.4%
O=[N+]([O-])c1ccc(CSc2ccc(-c3ccccn3)nn2)cc1 | -4.56%
CCCCCCCCN1[C@@H](CC(C)=O)c2cc(C(F)(F)F)ccc2S1(=O)=O | -3.95%
COc1ccc(NC(=O)Cc2ccc(Cl)cc2Cl)cn1 | -3.87%
CCS(=O)(=O)N1Cc2ccccc2CC1C(=O)Nc1ccc(C)cc1 (stereo not shown) | -14%
O=C(N/N=C/c1cc(Br)cc(Cl)c1O)c1ccc2c(c1)OCO2 | 7.63%
Cc1ccc([C@@H]2CC=C(C(=O)O)[C@H](c3ccc(Cl)cc3)N2S(=O)(=O)c2ccc(C)cc2)cc1 | 13.4%
CCn1c(SCc2nc3sc(C(=O)O)c(C)c3c(=O)[nH]2)nc2ccccc21 | 3.32%
CC(=O)c1ccc(OC(=O)CN2C(=O)c3ccccc3C2=O)cc1 | 16.8%
CSc1nc(N(C)CCO)c2sc3nc(-c4ccco4)c4c(c3c2n1)CCC4 | 1.18%
COc1ccccc1CN(C)CC(=O)Nc1cccc2ccccc12 | -12.7%
O=C(O)CSc1nc2ccccc2n1Cc1ccccc1 | 0.664%
Cc1cccc(NC(=O)CC2S/C(=N/c3nccs3)N(C)C2=O)c1 (stereo not shown) | 1.69%
CCc1cccc2c(C(=O)CCl)c[nH]c12 | -14.3%
CCOc1ccc(C2=CSC3=NCCN23)cc1Cl | -22.8%
Cc1ccc(C(=O)Cn2cccn2)cc1 | 23.7%
O=C(O)c1c(C(=O)O)c(-c2ccc(Cl)c(Cl)c2)n2c1CSC2 | 28.2%
CC(C)(C)C(=O)NCCCc1ccccc1 | -18.7%
COc1cnc(-c2ccccn2)nc1N(C)C | -1.39%
N=C1N(/N=C/c2ccccc2)C(=Nc2ccccc2)C(=S)N1c1ccccc1 | 2.03%
CC(C)Oc1ccc(CCc2nnc(SC(C)C(=O)O)n2-c2ccccc2)cc1 (stereo not shown) | 5.67%
CCN(CC(=O)NCc1ccc(F)cc1)C(=O)COc1ccc(C)c(C)c1 | -53.6%
Cc1ccc(Nc2nc(N)nc(CN3CCCCCC3)n2)cc1 | -72.1%
COC(=O)c1ccc(N=NN2CCCCCC2)cc1 | 6.38%
CCCNC(=O)c1ccccc1NC(=O)c1ccccc1N(C)S(=O)(=O)c1ccccc1 | -3.98%
